Measurements as given in PubChem BioAssay AID588342 (National Center for Advancing Translational Sciences (NCATS), 2011).
The campaign covered roughly 360,000 compounds. About 25,000 (6.9%) were called active. The shares of active, inactive and inconclusive entries below differ from those in the screen. Calls come from the whole dose curve; as a rule, active = well fitted inhibition curve with a large enough effect; inconclusive = small, poorly fitted or top-dose-only effect; inactive = flat fitted curve, though single readings scatter. Potencies beside an inconclusive call are fits to weak or partial responses and may not hold up.

What follows are compounds tested against Luciferin 4-monooxygenase (Photinus pyralis) (UniProt P08659) (assay: qHTS profiling assay for firefly luciferase inhibitor/activator using purifed enzyme and Km concentrations of substrates (counterscreen for miR-21 project)). Details: purified FLuc, luminescence inhibition; activity change, negative = inhibition: at 57.5 µM (top of the series).
UniProt P08659, sequence (P08659 whole entry, looked up): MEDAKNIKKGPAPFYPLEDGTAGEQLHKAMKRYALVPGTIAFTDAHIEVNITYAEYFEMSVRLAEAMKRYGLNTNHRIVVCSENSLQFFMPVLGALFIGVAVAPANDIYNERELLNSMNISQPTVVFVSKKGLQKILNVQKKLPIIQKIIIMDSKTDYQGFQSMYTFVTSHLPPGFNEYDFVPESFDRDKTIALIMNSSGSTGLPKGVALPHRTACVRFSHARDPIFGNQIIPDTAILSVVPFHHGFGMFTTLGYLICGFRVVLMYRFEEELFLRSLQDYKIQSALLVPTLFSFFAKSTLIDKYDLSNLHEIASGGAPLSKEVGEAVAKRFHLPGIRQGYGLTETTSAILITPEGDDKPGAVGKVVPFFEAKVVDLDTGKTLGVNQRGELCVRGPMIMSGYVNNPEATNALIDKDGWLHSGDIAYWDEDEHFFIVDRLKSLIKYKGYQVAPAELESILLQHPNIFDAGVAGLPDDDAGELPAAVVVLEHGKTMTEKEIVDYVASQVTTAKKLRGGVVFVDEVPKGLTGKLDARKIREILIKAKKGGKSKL
Outline: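 Purified P. pyralis luciferase, 10 nM final, with Km-level 10 uM D-luciferin and 10 uM ATP in 50 mM Tris acetate pH 7.5, 10 mM Mg acetate, 0.01% Tween-20, 0.05% BSA; 6-point qHTS titration about 60 µM downward; luminescence read.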
Note: nearly all actives have a fitted effect of over 55% in size.
Potency is the fitted concentration of half-maximal effect; tags give direction and shape of the fitted curve.
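Throughout, for activity change, negative = inhibition: plate controls were vehicle for no effect and reference inhibitor for full effect.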

Row | Compound | Potency | activity change, negative = inhibition
1 | CC(C)n1c(=O)c2oc3ccccc3c2n(Cc2ccccc2F)c1=O | inactive | 
2 | CCN(CCn1cccn1)C(=O)CCc1nnc(-c2ccccc2)o1 | inconclusive: 19 µM [inhibitor, partial curve] | 
3 | COc1ccc(NC(=O)/C(Cl)=C(/Cl)S(=O)Cc2ccc(Cl)cc2)cn1 (stereo not given) | inconclusive: 23.9 µM [inhibitor, partial curve, poor fit] | 
4 | COc1cc2c(-c3ccc4cc[nH]c4c3)c(-c3ccsc3)oc(=O)c2cc1OC | inconclusive: 21.3 µM [inhibitor, partial curve, poor fit] | 
5 | Cc1ccc(C)c(CN2C(=O)c3ccccc3S(=O)c3ccc(C(=O)NCc4ccco4)cc32)c1 (stereo not given) | inactive | 
6 | CC(C)C(=O)Nc1ccc(-c2ccc3nncn3n2)cc1 | inconclusive: 26.9 µM [inhibitor, partial curve] | 
7 | Cc1cc(C)c(S(=O)(=O)Nc2cccc(-c3cn4ccccc4n3)c2)c(C)c1 | active: 9.53 µM | 
8 | Cc1ccc(NC(=O)Cn2c(=O)n(CCc3ccccc3)c(=O)c3c4c(sc32)CCCC4)cc1C | inactive | 
9 | Cc1cc(C(F)F)nn1CC(=O)NC1C(=O)N2C(C(=O)O)=C(CSc3nnnn3C)CSC12 (stereo not given) | inactive | 
10 | O=C(CCNc1ccc(F)cc1)c1ccco1 |  | inactive: 2.34% [at 2.3 µM]
11 | COc1ccc(-c2cc(C(=O)N3CCN(c4cccc(C)c4C)CC3)c3ccccc3n2)cc1OC | inconclusive: 15.1 µM [inhibitor, partial curve] | 
12 | CCCc1nc2nc(C)c(NS(=O)(=O)c3ccc(C)c(C)c3)c(=O)n2[nH]1 | inconclusive: 30.1 µM [inhibitor, partial curve, poor fit] | 
13 | COc1cc(/C=N\N=C2/SC(CC(=O)O)C(=O)N2c2ccc(O)cc2)ccc1O (stereo not given) | inconclusive: 21.3 µM [inhibitor, single point] | 
14 | Cc1cccc(N=C2NN=C(c3c[nH]c4ccccc34)CS2)c1 | inconclusive: 26.9 µM [inhibitor, single point] | 
15 | CCCN(CCC)c1ccc(/C=C/c2ccc3cc(OCC)ccc3n2)cc1 | active: 6.75 µM | 
16 | COc1ccc(OCc2nc(-c3ccc(OC)c(OC)c3)no2)cc1 | inactive | 
17 | BrC(=C\c1ccccc1)/C=N/N1CCN(c2ccccc2)CC1 | inconclusive: 9.53 µM [inhibitor, partial curve] | 
18 | Clc1ccc(OCCCN2CCCCC2)c(Br)c1 | active: 15.1 µM | 
19 | COc1cccc(OCC(=O)N2CCCc3ccccc32)c1 | inconclusive: 37.9 µM [inhibitor, partial curve, poor fit] | 
20 | CCN(CC)c1ccc2cc(-c3nnc(-c4ccccc4)o3)c(=O)oc2c1 | inconclusive: 3.79 µM [inhibitor, full curve] | 
